{"source": "paper PMC12820563", "note": "The other results are listed elsewhere or left out. The list includes weakly bound sequences.", "data": [{"target": "T1, MBP-FoxP3dN (UniProt Q99JB6)", "T1 sequence": "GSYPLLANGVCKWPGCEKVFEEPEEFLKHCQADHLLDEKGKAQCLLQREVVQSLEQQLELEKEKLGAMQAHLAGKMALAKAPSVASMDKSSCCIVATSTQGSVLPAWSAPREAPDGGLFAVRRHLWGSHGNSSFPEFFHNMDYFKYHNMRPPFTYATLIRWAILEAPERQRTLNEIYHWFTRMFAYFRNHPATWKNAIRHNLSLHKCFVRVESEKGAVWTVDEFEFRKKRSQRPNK", "test": "PD-seq (MBP pull-down with sequencing)", "details": "20 mM Tris-HCl pH 7.5, 100 mM NaCl, 1.5 mM MgCl2, 0.4 uM protein, 0.1 uM dsDNA library, 30 min, room temperature, amylose pull-down; high values mean tight binding; double strand, one strand shown", "values": [{"sequence": "GATGATTGTTCTCCCAGCTGATGAATTGTTGGGCTCGAGTAAACAAATTTTCCTAATCTTTCTGTTCAAGCGCCATCTAC", "binding signal (RPM ratio (pull-down/input))": 1.71}, {"sequence": "GATGATTGTTCTCCCAGCTGATGAATTGAATGAGTCGAGTAAACAAATTTTCCTAATCTTTCTGTTCAAGCGCCATCTAC", "binding signal (RPM ratio (pull-down/input))": 0.413}, {"sequence": "GATGATTGTTCTCCCAGCTGATGAATTTGCGCATTCGAGTAAACAAATTTTCCTAATCTTTCTGTTCAAGCGCCATCTAC", "binding signal (RPM ratio (pull-down/input))": 7.07}, {"sequence": "GATGATTGTTCTCCCAGCTGATGAATTCAGCTCCTCGAGTAAACAAATTTTCCTAATCTTTCTGTTCAAGCGCCATCTAC", "binding signal (RPM ratio (pull-down/input))": 0.649}, {"sequence": "GATGATTGTTCTCCCAGCTGATGAATTGACGGGTTCGAGTAAACAAATTTTCCTAATCTTTCTGTTCAAGCGCCATCTAC", "binding signal (RPM ratio (pull-down/input))": 0.415}, {"sequence": "GATGATTGTTCTCCCAGCTGATGAATTTAAAAAATCGAGTAAACAAATTTTCCTAATCTTTCTGTTCAAGCGCCATCTAC", "binding signal (RPM ratio (pull-down/input))": 0.162}, {"sequence": "GATGATTGTTCTCCCAGCTGATGAATTAGAACTGTCGAGTAAACAAATTTTCCTAATCTTTCTGTTCAAGCGCCATCTAC", "binding signal (RPM ratio (pull-down/input))": 0.308}, {"sequence": "GATGATTGTTCTCCCAGCTGATGAATTTGGTCTATCGAGTAAACAAATTTTCCTAATCTTTCTGTTCAAGCGCCATCTAC", "binding signal (RPM ratio (pull-down/input))": 0.749}, {"sequence": "GATGATTGTTCTCCCAGCTGATGAATTCGAGAAGTCGAGTAAACAAATTTTCCTAATCTTTCTGTTCAAGCGCCATCTAC", "binding signal (RPM ratio (pull-down/input))": 0.16}, {"sequence": "GATGATTGTTCTCCCAGCTGATGAATTGCAGTAGTCGAGTAAACAAATTTTCCTAATCTTTCTGTTCAAGCGCCATCTAC", "binding signal (RPM ratio (pull-down/input))": 0.742}, {"sequence": "GATGATTGTTCTCCCAGCTGATGAATTCATAGATTCGAGTAAACAAATTTTCCTAATCTTTCTGTTCAAGCGCCATCTAC", "binding signal (RPM ratio (pull-down/input))": 0.351}, {"sequence": "GATGATTGTTCTCCCAGCTGATGAATTCCGAGCTTCGAGTAAACAAATTTTCCTAATCTTTCTGTTCAAGCGCCATCTAC", "binding signal (RPM ratio (pull-down/input))": 0.301}, {"sequence": "GATGATTGTTCTCCCAGCTGATGAATTCCGCGGATCGAGTAAACAAATTTTCCTAATCTTTCTGTTCAAGCGCCATCTAC", "binding signal (RPM ratio (pull-down/input))": 0.261}, {"sequence": "GATGATTGTTCTCCCAGCTGATGAATTAATTAATTCGAGTAAACAAATTTTCCTAATCTTTCTGTTCAAGCGCCATCTAC", "binding signal (RPM ratio (pull-down/input))": 0.374}, {"sequence": "GATGATTGTTCTCCCAGCTGATGAATTGCACCTCTCGAGTAAACAAATTTTCCTAATCTTTCTGTTCAAGCGCCATCTAC", "binding signal (RPM ratio (pull-down/input))": 1.2}, {"sequence": "GATGATTGTTCTCCCAGCTGATGAATTACACCTATCGAGTAAACAAATTTTCCTAATCTTTCTGTTCAAGCGCCATCTAC", "binding signal (RPM ratio (pull-down/input))": 0.645}, {"sequence": "GATGATTGTTCTCCCAGCTGATGAATTTTTGAAGTCGAGTAAACAAATTTTCCTAATCTTTCTGTTCAAGCGCCATCTAC", "binding signal (RPM ratio (pull-down/input))": 0.206}, {"sequence": "GATGATTGTTCTCCCAGCTGATGAATTACTAATCTCGAGTAAACAAATTTTCCTAATCTTTCTGTTCAAGCGCCATCTAC", "binding signal (RPM ratio (pull-down/input))": 0.468}]}]}
